# Laboratory results from PMC4242493.
# This is one part of the list. The list includes weakly bound sequences.
# Target: MaxL homodimer (UniProt P61244)
# Assay: universal protein-binding microarray (PBM)
# Details: PBS-based mixture, 10 nM His-tagged protein dimer, 2% milk, 200 ng/uL BSA, 50 ng/uL salmon testes DNA, 0.02% TX-100; detection with Alexa 488 anti-His …; high values mean tight binding; most listed sequences are background and not binding sites; double strand, one strand shown
# Chain of UniProt P61244 (P61244 whole entry): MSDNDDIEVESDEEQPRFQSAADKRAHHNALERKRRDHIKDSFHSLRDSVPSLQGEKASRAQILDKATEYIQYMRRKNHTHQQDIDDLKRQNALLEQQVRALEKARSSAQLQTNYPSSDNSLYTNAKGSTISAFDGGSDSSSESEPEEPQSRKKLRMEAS
row,Sequence,binding signal (normalized occupancy)
1,CGCAGCGA,0.0669
2,AGAGCGTA,0.0758
3,GAGCGTGC,0.0887
4,GTGTCCTA,0.074
5,CGTAATTC,0.0757
6,ATGGGCCG,0.0763
7,GAGGTACC,0.0689
8,GCAGCAGC,0.0725
9,CGAGTAGA,0.0741
10,AGCGGCAC,0.0754
11,ATATCGAG,0.0761
12,ATCCACAT,0.0977
13,ACCTAGTA,0.0711
14,CCAACGGA,0.0721
15,CCAGTGCG,0.0677
16,AAGGGTAC,0.0733
17,GGGGCACA,0.079
18,GCCTCACC,0.0737
19,AATGCTGG,0.0789
20,GTCGTTCA,0.073
21,ATAGCCCC,0.0781
22,GCTGGTAA,0.0721
23,AGCATCGA,0.073
24,AGCTCGTG,0.0836

row,Sequence,binding signal (normalized occupancy)
1,AATGTAGT,0.0767
2,AAACATGC,0.0937
3,CCTTAACC,0.0754
4,AGTATACC,0.0818
5,TGCAGTAA,0.078
6,ACAATGGT,0.0799
7,AATCGTGT,0.0839
8,AGCGACTC,0.0731
9,TACGAGAA,0.075
10,ACCCGAGA,0.0705
11,ACACTGAG,0.0731
12,GTGGGGCA,0.0781
13,AAACGATG,0.0722
14,ATTTTCCA,0.0795
15,GGTTATAC,0.0804
16,GATGAGCA,0.0802
17,CCACCCAG,0.0804
18,ACATTTGG,0.0755
19,AACTGGAG,0.0727
20,GTCCTGAA,0.0705
21,CTCGAGAA,0.0769
22,ACACCCCC,0.0913
23,TCGAGTCA,0.0754
24,ACCGCACG,0.0828

row,Sequence,binding signal (normalized occupancy)
1,GGATGACC,0.0803
2,GACACTCC,0.0768
3,CTTGAATC,0.0757
4,TTACTCAA,0.069
5,GTGAAAAA,0.0773
6,ACGTTATG,0.0879
7,CTCGGTCC,0.0706
8,CGGCGCCA,0.0686
9,GACCAATC,0.0726
10,ACGCCCCT,0.0783
11,CGTTGGAC,0.0755
12,AAGGAGTG,0.0738
13,ATACGCTG,0.0737
14,GAACTCAA,0.0715
15,CTGCTCCA,0.0758
16,ACGGGACA,0.0774
17,ACAGTCCT,0.074
18,CAATTGTG,0.0771
19,CATAACGA,0.0817
20,AAAGGTGA,0.0738
21,AACGGATG,0.0738
22,GACCGTCA,0.0699
23,CTATGATC,0.0755
24,CATACTGA,0.0804

row,Sequence,binding signal (normalized occupancy)
1,ACCTGGAG,0.0744
2,ATGCCCCC,0.084
3,ACACTGAT,0.0738
4,AGCATAGC,0.0776
5,ACCTCAGC,0.0716
6,AACCAGTC,0.0716
7,CAAACATG,0.0901
8,AATTCCCG,0.0738
9,AGTCGGGG,0.0767
10,CTTTCACA,0.0732
11,CTATCCTA,0.0757
12,AGCCAGGA,0.078
13,GTGATTAA,0.082
14,ACCGTATC,0.074
15,CCGTCTTA,0.0684
16,AAAGTGTA,0.0869
17,ACGCTACG,0.0854
18,ATGGATGG,0.0812
19,CTACCGGA,0.0764
20,ATATTCTA,0.0828
21,AGCTGTTG,0.0705
22,GAAGTATA,0.0736
23,CGTATGCC,0.0784
24,ACCAAGGA,0.0738

row,Sequence,binding signal (normalized occupancy)
1,CCGACTCC,0.0671
2,GACTACTA,0.0774
3,GATTGCTA,0.0714
4,CAATTATG,0.0802
5,AACCTGGC,0.0717
6,ACCGCTTC,0.0677
7,GTCTGTAA,0.0776
8,GTAGGGAC,0.0697
9,GTAAGTAA,0.0825
10,ATTTTCGG,0.0746
11,TTACGAAA,0.0726
12,AATCTAGA,0.0712
13,AGCCGCCA,0.0684
14,GATGGAGC,0.0776
15,GGATCAAA,0.0757
16,ACATTAGG,0.0844
17,AGACCGGA,0.0706
18,AAAAGTGA,0.0725
19,CCAATTGA,0.0716
20,CCCTACGA,0.0814
21,GACTCTAC,0.075
22,GCCATGGA,0.0788
23,TCTTCGCA,0.0796
24,CGACCGTC,0.0722

row,Sequence,binding signal (normalized occupancy)
1,AACTGAAT,0.0721
2,CACGGTGA,0.0847
3,AAGGACGC,0.0688
4,CGTATACG,0.0798
5,AGCCCACA,0.0759
6,AACTGTTA,0.0755
7,ACGTTAAG,0.0743
8,CCCGTAGC,0.0683
9,CTCCTACA,0.0776
10,CAGCGTGG,0.129
11,ACAACCGT,0.0742
12,CCGGCACG,0.0836
13,GATCAGAA,0.0725
14,ACAAAAGG,0.0713
15,AGAAATAG,0.0797
16,CATCAAGC,0.0726
17,AATACTTG,0.0777
18,AGAATGTC,0.0744
19,ACTTCTTC,0.0712
20,CGCTCGTA,0.0784
21,CGACTATA,0.0856
22,CGATAACG,0.0734
23,AGAATGGG,0.0752
24,GCGGCGCC,0.0654

row,Sequence,binding signal (normalized occupancy)
1,ATGCGGTC,0.0901
2,GGGATACC,0.0741
3,CGACATAC,0.0791
4,CAAGTTTC,0.0747
5,AAACCAAA,0.071
6,ATGCCACG,0.101
7,AAACATTT,0.0688
8,CATCAGAC,0.0785
9,AATTAATA,0.0733
10,AAGCGCGC,0.0767
11,ACTGTCCT,0.0719
12,CATAGGTA,0.0785
13,GGCTAAGA,0.0725
14,AAATATAT,0.0798
15,CTAAGGGA,0.0721
16,GATCGTGA,0.0758
17,GCACAGTA,0.0696
18,ACTCCTCT,0.0714
19,CATAAATG,0.0826
20,GAGAAAAA,0.0657
21,CGCCGCAA,0.0658
22,ACAATGCC,0.0821
23,AGTAGCTC,0.0765
24,ACAGGGTG,0.0771

row,Sequence,binding signal (normalized occupancy)
1,TAAATGTA,0.0785
2,GTTGATTA,0.0771
3,ATGTCACG,0.101
4,GCGCGTCC,0.0708
5,CTAATGCA,0.0781
6,CCTAGGCG,0.0728
7,TCCCAAGA,0.0679
8,ACCCCTGC,0.0762
9,GCCTCTTA,0.073
10,GTCTCACA,0.0781
11,GAGTTACA,0.0767
12,AAGACAGT,0.0726
13,CATTTGCG,0.0749
14,ATACTAGC,0.0756
15,GTGCGAAC,0.0736
16,AAGATCGG,0.0697
17,CTTAATGC,0.07
18,CGGGAAGA,0.0749
19,GGAAGGCC,0.0699
20,CAGCCTCC,0.0691
21,ACCGGGCC,0.0674
22,ATTCCTTG,0.0713
23,AATATTTC,0.0809
24,GAAGATTA,0.073

row,Sequence,binding signal (normalized occupancy)
1,CACGAATC,0.0759
2,GGCACGGA,0.0704
3,ATTTTTTC,0.0734
4,GCCGCGGA,0.0659
5,CTGGCCGA,0.0668
6,GTTATGGA,0.0865
7,CGTGCAAA,0.0868
8,ACATGGCT,0.0932
9,CGTACCTC,0.0674
10,ATGGAGAG,0.0815
11,AGATTCCT,0.0865
12,GGCTGCCC,0.0697
13,TGAGCAAA,0.0783
14,AACCAGCT,0.0707
15,ACCATGAG,0.0976
16,CCGATATA,0.0798
17,TACCGCCA,0.0821
18,ACGATACG,0.0757
19,ACGCTCTC,0.0783
20,AGGTTCAG,0.0747
21,CGCAACAC,0.0797
22,AGACGCCT,0.0683
23,CTGATCAG,0.07
24,AGCGCCCA,0.0708

row,Sequence,binding signal (normalized occupancy)
1,GCTATACC,0.0805
2,ACATATTG,0.0827
3,GAGTCAAC,0.0769
4,GACCCTCA,0.0742
5,CTATCGGC,0.0709
6,GTAATCCA,0.0839
7,CCTCGTCC,0.0701
8,GCCTGACA,0.0768
9,GGGTTGAA,0.0787
10,CCCCCCAG,0.0811
11,GAAGGATA,0.0773
12,GCGGAGCA,0.07
13,GAAGAAAC,0.0746
14,CTTCCATC,0.0842
15,ATAGCTTC,0.074
16,CACTCGAC,0.0757
17,CTCAAGGA,0.0688
18,AAGTCGTG,0.0757
19,AACCGCCA,0.0716
20,ATTGATAA,0.0774
21,AGGACCTC,0.0682
22,CTATGTCC,0.077
